Results as given in a collection of fitness landscapes (doi:10.1016/j.celrep.2020.107928).
In all, about 81,000 sequences were measured (“one-hybrid fitness for binding NBS DNA”: median about -0.1, highest 2% from about 0.36 on). The list shows a part of the results.

B1: Caulobacter ParB omega fusion; a variant is named by its letters at X, in order, B8GW30 (parent)
chain: MESVVVGEPGMSEGRRGLGRGLSALLGEVDAAPAQAPGEQLGGSREAPIEILQRNPDQPRRTFREEDLEDLSNSIREKGVLQPILVRPSPDTAGEYQIVAGERAWRAAQRAGLKTVPIMVRELDDLAVLEIGIIENVQRADLNVLEEALSYKVLMEKFERTQENIAQTIGKSXSHVANXMRLLXLPDEVQSYLVSGELTAXHARAIAAAADPVALAKQIIEGGLSVRETEALARKAPNLSAGKSKGGRPPRVKDTDTQALESDLSSVLGLDVSIDHRGSTGTLTITYATLEQLDDLCNRLTRGI

Variants of: B1
Test: one-hybrid fitness for binding NBS DNA (the Noc-binding site; scaled: cognate 1, non-cognate 0); higher = stronger binding
Conditions: with NBS DNA site
In short: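 Caulobacter ParB libraries with four specificity codons randomised were screened by bacterial one-hybrid selection in the E. coli USO strain, using a HIS3 reporter whose site lies 19 bp from the promoter. Selection ran for 48 hours at 37°C on M9 lacking histidine, with 0.1 mM IPTG and 5 mM 3-AT. Plasmids were Illumina-sequenced before and after selection, three replicate libraries were pooled, and variants with under 10 reads were dropped. Fitness is the log change in each variant's read ratio to wild type, rescaled against the cognate and non-cognate sites.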

one-hybrid fitness for binding NBS DNA, 0.285:
RSVS

one-hybrid fitness for binding NBS DNA, 0.798:
RRRY

one-hybrid fitness for binding NBS DNA, 0.437:
QRHC

one-hybrid fitness for binding NBS DNA, 0.233:
QRMW

one-hybrid fitness for binding NBS DNA, 0.877:
QTHR

one-hybrid fitness for binding NBS DNA, 0.207:
QLIS

one-hybrid fitness for binding NBS DNA, 0.461:
RRKG

one-hybrid fitness for binding NBS DNA, 0.643:
QCAR

one-hybrid fitness for binding NBS DNA, 0.235:
RHER

one-hybrid fitness for binding NBS DNA, 0.272:
QRVV

one-hybrid fitness for binding NBS DNA, 0.622:
RTGR

one-hybrid fitness for binding NBS DNA, 0.499:
QQMT

one-hybrid fitness for binding NBS DNA, 0.423:
RAYS

one-hybrid fitness for binding NBS DNA, 0.759:
QRTT

one-hybrid fitness for binding NBS DNA, 0.465:
QKGS

one-hybrid fitness for binding NBS DNA, ≤ 0.2:
YRKN
MWVV
MTKV
MLPW
CPSS
TVTW
ILEC
KRNN
QFMS
ECLD
SPGV
AGMM
PQTF
ECNG
VSCH
YDRS
MANC
ACAT
RWLY
AVNP
YCWS
NQQC
FLNF
PPMH
SMLS
DYDS
LSNG
GKMI
PIVP
QQIE
AARD
CSHW
ATNS
THFA
TYQC
QIIG
YYKC
QERL
RFDM
HDFG
VKWF
LTNI
KLRY
PQTI
TGKF
RGCD
APDS
PDRE
PSYR
CQTS
HYNS
PMRV
VMFF
HATC
LGRC
RAVY
PCTG
QNPE
GLCW
HQEL
VQRK
ENSK
MALG
ISCI
YGPV
NVTV
RLSC
RKSY
PMRD
DGNC
RWPT
MQRS
LMLL
HHNY
DLHL
AIHH
QDCP
SCEE
GEMW
YRKY
PLGH
DYRY
IGPF
QDVT
LCTK
TAVM
NVYW
KFSD
AHNP
WSRF
GNDT
QRDP
HLGR
KSKC
LATK
IVNV
NRSS
LESN
QQNE
DPHQ
TFTC
WMKC
HAES
WYQG
EHKL
DAAW
IEHS
VAAP
KWCV
RNEE
PQHL
LQCQ
MGRG
HRFI
IDVG
GGHY
TGCG
SCGE
HLIS
VWLM
VYTY
HYQC
TATH
QHSW
SRTC
SMET
SDGV
VIIS
TSID
RRFI
QMTL
AFNP
SSRI
SRYL
EQES
QVRN
LLSD
QKPG
TRPG
GHSE
NTMT
TTRQ
TTRG
YIVC
FGSR
KRYV
PGHC
TLYS
VEPI
KPSS
LDTS
GWRG
KRAD
HCWL
MGTR
RLPR
EQKG
KAAC
VRLV
PQSA
AGIK
PNWL
HHPW
NQRT
QMIF
GQGI
GKCN
WIAT
DFTV
ASDF
NASF
LRTI
ECLR
ALKA
AQIG
MMKS
IPMV
DKEG
QPIF
TVSV
RTGN
RGLW
EYRF
KVWR
RIDH
AFAH
SPVM
HPSG
SRPH
CRHS
KAMG
DHGT
FSIV
LWAV
IWRI
ASKG
HQTI
YRGR
CSTL
TTDC
KETG
YYYT
IRGM
NPLN
RWDP
QVAG
DAHT
LLPE
NSQW
KVPG
CTKM
WCES
SLYV
DPSF
TCDL
GITA
HHAC
ARCG
GTTH
CGVM
SQYE
KSRW
AQLG
YSPK
HFRR
PYNC
KRNL
WDGA
DYKA
ILKG
RSEK
KFLW
RGPF
PSGY
MPIP
LLSS
HEIG
LTGA
CQFT
HKRG
YNDS
GYKA
RQAY
SDKT
GAWC
MVYR
PNIV
PPAA
RFWM
WQPT
GGNL
WHPF
ENAM
RTWN
CMKR
MWFS
YCKV
AQVS
CLYV
THDK
LNWW
HQLR
RHLI
SLIS
LKGT
QCAI
EKAM
KPTF
QISD
DDPF
QERE
FGYS
AWNV
HSEA
PASV
QDTI
MIAR
LSRS
AGPE
NKHI
GTDA
IYKG
GFVS
DILY
VARW
INRS
WLKC
RDKT
APLP
NTHW
CQGT
